Data published in PubChem BioAssay AID1508624 (National Center for Advancing Translational Sciences (NCATS), 2021).
In all, about 48,000 compounds went through this assay and about 120 (0.25%) were called active. Not shown: some 4% with an inconclusive outcome. Calls follow the shape of the dose curve; as a rule, active = well fitted activation curve with a large enough effect; inconclusive = small, poorly fitted or top-dose-only effect, or another doubt; inactive = no such curve, though single readings can be large or run the other way. Some of the results follow.

test: Primary qHTS for Identification of Small Molecule Activators of Huntingtin-Antisense Promoter Activity; conditions: HEK293 HTT-AS promoter firefly luciferase reporter (activity 0% = vehicle and -100% = no light), 24 h; series mostly up to 57.5 µM; activity change, positive = activation: at the top concentration; also: nearly all actives have a fitted effect of over 55% in size
Method in brief: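 Firefly luciferase readout (Dual-Glo, 10 min RT) after 24 h, 37 °C compound exposure (final up to 57.5 uM) of HEK293 reporter cells cultured 24 h beforehand; PTC124 at 50 uM final as control inhibitor; activity scaled vehicle 0%, zero RLU -100%.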

Activity change, positive = activation, inactive:
CCOC(=O)CCn1cnc2onc(-c3cc(OC)ccc3Cl)c2c1=O -14.7%
COc1ccc(N(CC(C)C)S(=O)(=O)c2nnc(NC(=O)c3cccs3)s2)cc1 -29.2%
CSc1cccc(NC(=O)C2CCN(S(=O)(=O)c3ccc4c(c3)CCCN4C(=O)C3CCC3)CC2)c1 -20.8%
CCCCCCCCCCCCCCC[C@H](O)[C@@H](N)CO -6.98%
Cc1cc(C)n(-c2nc3cc(Cl)ccc3nc2Nc2ccc(C)c(F)c2)n1 13.2%
CCn1ccc2cc(S(=O)(=O)N3CCC(C(=O)NCc4cccc(Cl)c4)CC3)ccc21 -15.9%
Cc1cc(C)c(NC(=O)c2cc(S(=O)(=O)NCCC3=CCCCC3)ccc2F)c(C)c1 -34.5%
Cc1ccc(-n2ncc(C(=O)NCCN3CCCC3)c2C2CCN(C(=O)OC(C)(C)C)CC2)cc1 -13.2%
CCOc1ccc(N(C)S(=O)(=O)c2c(C(=O)N3CCC(C)CC3)c(C)n(C)c2C)cc1 -15%
Cc1cccc(-n2ncc(C(=O)N3CCN(Cc4ccccc4)CC3)c2C2CCN(C(=O)OC(C)(C)C)CC2)c1 -28.3%
Cc1ccc(NC(=O)Cn2nnc3sc4c(c3c2=O)CCC(C)C4)cc1 (configuration not stated) -11%
COc1ccc(Cn2c(CCC(=O)Nc3ccc(C)cc3)nc3cccnc32)cc1 -22.7%
CCOc1ccccc1NC(=O)N1c2ccccc2Sc2ccccc21 -24.1%
COCCCn1c(=N)c(C(=O)NCc2ccco2)cc2c(=O)n3cccc(C)c3nc21 -6.12%
CCc1ccccc1NC(=O)Nc1cc(C(=O)NCc2cccc(F)c2)ccc1N1CCCC1 -0.164%
CCOC(=O)c1c(NC(=O)COc2ccc(Br)cc2)sc2c1CCCC2 6.5%
CCc1ccc(S(=O)(=O)c2nnn3c2nc(Nc2ccc(C)c(Cl)c2)c2sccc23)cc1 -4.27%
O=C(Cn1ncn2nc(-c3cccs3)cc2c1=O)NCc1ccc(Cl)cc1 4.38%
Cc1oc(-c2cccc(Cl)c2)nc1CN1CCCC(C(=O)NCCc2ccc(Cl)cc2)C1 (configuration not stated) -41.8%
CCn1c(SCc2cccc(Br)c2)nnc1-c1nonc1NC(C)=O -33.1%
CC(C)CNC(=O)C(=O)Nc1c2c(nn1-c1ccccc1)CS(=O)(=O)C2 -13.4%
CC(=O)Nc1cc(C(=O)NCc2ccc(C)cc2)ccc1S(=O)(=O)c1ccc(Cl)cc1 -18.7%
CCOC(=O)CN1C(C(=O)c2ccccc2)=C(OC(=O)C(C)(C)C)c2ccccc2S1(=O)=O -17.9%
CSc1cccc(NC(=O)Cn2c(=O)n(Cc3ccccc3)c(=O)c3sc4ccccc4c32)c1 -11.9%
O=C(CSc1oc(-c2ccccc2)nc1S(=O)(=O)c1ccc(Cl)cc1)NC1CCCCC1 8.61%
CCCc1nnc(NC(=O)Cc2coc3ccc(C(C)C)cc23)s1 -9.55%
COc1ccc(-n2nnc(-c3nsc(NC(=O)c4ccc(C)c(C)c4)n3)c2C)cc1Cl -3.23%
CC(C)COC(=O)Cn1nnc2sc(-c3ccccc3)cc2c1=O -3.79%
COCCCNC(=O)CSc1nc2cc3c(cc2c(=O)n1CCCCCC(=O)NCc1ccc(OC)cc1)OCO3 -11.4%
Cc1cc(C)c(NS(=O)(=O)c2cc(-c3onc(C)c3C)ccc2C)c(C)c1 -26.1%
CC1CCN(C(=O)c2ccc3c(c2)N(Cc2ccccc2)C(=O)c2ccccc2S3(=O)=O)CC1 -25.5%
Cc1ccc(NC(=O)c2cnc(SCC(=O)N3CCOCC3)n(C)c2=O)cc1C -36.9%
O=C(CN1CCCN(S(=O)(=O)c2ccc(Br)cc2)CC1)Nc1cccc(C(F)(F)F)c1 -31.9%
O=C(Nc1cccc(C(F)(F)F)c1)c1cc(S(=O)(=O)N2CCCC2)c[nH]1 -14.9%
Cc1cccc(N2CCN(C(=O)c3ccc4c(Cl)c5c(nc4c3)CCCC5)CC2C)c1 (configuration not stated) -12.1%
COc1ccc(NC(=O)Cn2c(=O)c3cc(Cl)ccc3n3nncc23)cc1 -18.4%
CC1(C)OC[C@@H]2O[C@@]3(C(=O)O)OC(C)(C)O[C@H]3[C@@H]2O1 -5.25%
CCOc1ccc(C(=O)c2cn(CC(=O)Nc3ccc4c(c3)OCCO4)c3ccc(F)cc3c2=O)cc1 -13.7%
CC(C)CCNS(=O)(=O)c1ccc(N2CCCCS2(=O)=O)cc1 -20.9%
COC(=O)CN1C(=O)CSc2ccc(S(=O)(=O)Nc3ccc(C(C)=O)cc3)cc21 -13%
CN(C(=O)CSc1nc(C2CCCC2)nc2c1c(=O)n(C)c(=O)n2C)c1ccccc1 -37.4%
Cc1cccc(C)c1OC(=O)CSc1nnc(CNC(=O)c2ccccc2)o1 -23.9%
COc1ccc(NC(=O)c2oc3ccccc3c2NC(=O)C23CC4CC(CC(C4)C2)C3)c(OC)c1 -1.18%
COc1ccc2c(c1)c(CC(=O)Nc1ccc(C(C)=O)cc1)c(C)n2C(=O)c1ccc(Cl)cc1 -5.02%
COc1ccc(S(=O)(=O)NCCS(=O)(=O)N2CCN(c3ccccc3)CC2)cc1OC -14.8%
Cc1ccc(NC(=O)c2oc3ccccc3c2NC(=O)c2ccc(F)c(F)c2)cc1 -6.25%
CCc1ccc(NC(=O)CSc2nc3c(oc4ccccc43)c(=O)n2-c2cccc(C)c2)cc1 -18%
CCc1cccc(CC)c1NC(=O)C(Cc1ccccc1)NS(=O)(=O)c1cccc2nsnc12 (configuration not stated) -21.9%
Cc1ccc(NC(=O)c2ccc(CN3CCN(C)CC3)cc2)cc1Nc1nccc(-c2cccnc2)n1
Cc1ccc(CNC(=O)CCCCCn2c(=O)c3sccc3n(CC(=O)Nc3ccc(C)c(F)c3)c2=O)cc1 1.49%
CC(C)CN(CCCNC(=O)c1cc(=O)[nH]c2ccc(S(=O)(=O)N3CCCC3)cc12)CC(C)C -18.4%
CCc1cnc2c(c1SCc1ccccc1C)c(=O)n(C)c(=O)n2C -11.2%
COc1cccc(C(=O)NC(=NCCc2c[nH]c3ccc(OC)cc23)Nc2nc(C)cc(C)n2)c1 -40.6%
CN1CCc2c(sc(NC(=O)CSc3ccc(F)cc3)c2-c2nc3ccccc3s2)C1 -19%
CCN1C(C(=O)c2ccccc2)=C(OC(=O)COc2ccc(OC)cc2)c2ccccc2S1(=O)=O -31.5%
CCN(Cc1ccccc1)Cc1c(O)ccc2c(=O)c(-c3ccc(Cl)cc3)coc12 -7.72%
O=C(NCc1ccccc1Cl)c1cnc(N2CCOCC2)c2ccccc12 -9.08%
Cc1ccc(-c2cc(-c3coc4ccc(Cl)cc4c3=O)c3c(n2)-c2ccccc2OC3)cc1 -10.5%
CC(C)C(=O)Oc1ccc(CO)cc1[C@H](CCN(C(C)C)C(C)C)c1ccccc1 -10.9%
Cc1ccc2cccc(NC(=O)c3cccc4c(Cl)cccc34)c2n1 -12.9%
O=C(C1CCC(Cn2c(=O)c3sccc3n(Cc3ccccc3)c2=O)CC1)N1CCCCC1 (configuration not stated) -21.7%
Cc1ccc(C)c(N2CCN(C(=O)CCNS(=O)(=O)c3ccc4c(c3)CCN4C(=O)C3CC3)CC2)c1 -44.7%
COc1ccc(OC)c(NC(=O)CC2C(=O)NCCN2C(=O)C(F)(F)F)c1 (configuration not stated) -2.1%
CCOc1ccc(NC(=O)CCc2nc3cccnc3n2-c2ccccc2)cc1 -16.6%
CCOC(=O)c1ccc(NC(=O)C(Cc2ccccc2)N2Cc3ccccc3C2=O)cc1 (configuration not stated) 3.82%
Cc1ccc(-c2nn3c(=O)cc(CN4CCN(C(=O)/C=C/c5ccccc5)CC4)nc3s2)cc1 -9.66%
CCn1c(=O)c2sccc2n2c(CCCC(=O)N3CCN(c4cccc(Cl)c4)CC3)nnc12 -8.18%
CCc1ccc(-c2cn3c(n2)sc2cc(C(=O)NCCC4=CCCCC4)ccc23)cc1 4.11%
CCOC(=O)c1ccc(NC(=O)CSc2cn(CC(=O)N3CCCC3)c3ccccc23)cc1 -22.7%
CCCOc1ccc(C(=O)Nc2ccc3oc(-c4cccc(Cl)c4Cl)nc3c2)cc1 -11.4%
COC(=O)c1ccc2c(c1)N(CC(=O)Nc1ccc(OC)c(Cl)c1)C(=O)c1ccccc1S2 -12.1%
Cc1ccc(-n2nc3c(N4CCCC(C(=O)NCc5ccc(Cl)cc5)C4)nnc(C)c3c2C)cc1 (configuration not stated) -3.24%
O=C(CCS(=O)(=O)c1nc(-c2cccs2)cc(C(F)(F)F)n1)Nc1cc(Br)ccc1O -93.2%
CC(C)c1ccc(NC(=O)Cn2cc(S(=O)(=O)Cc3cccc(Cl)c3)c3ccccc32)cc1 -43.2%
COc1ccc(C(=O)Nc2nc3n(n2)C(c2ccccc2)C=C(c2ccccc2)N3)cc1 (configuration not stated) -18.4%
Cc1ccc(NC(=O)Cn2c(=O)n(Cc3nc(C)no3)c(=O)c3cc4c(cc32)OCO4)c(C)c1 -9.55%
N#Cc1nc(COc2cccc(Cl)c2)oc1NCCc1ccccc1 -0.217%
CC(C)c1ccc(NC(=O)CSc2nc(=O)n(Cc3ccccn3)c3c2CCC3)cc1 -36%
CCOc1ccccc1C(=O)N(Cc1cc(OC)c(OC)c(OC)c1)c1ccccn1 -6.98%
CCCn1c(SCc2nc(-c3ccccc3OCC)no2)nnc1-c1ccc(Cl)cc1 -40.2%
COc1cc2c(cc1OC)n(CC(=O)c1cccc(Cl)c1)c(=O)n1nc(CCn3nc(C)cc3C)nc21 -15.9%
Cc1ccc(Nc2sc(C(=O)c3ccccc3)c(N)c2C(=O)Nc2ccc(Cl)cc2)cc1 -35.7%
CCOCCCNC(=O)c1cc(Sc2cccc(Cl)c2)nc2ccccc12 -18.5%
O=C(CCN1C(=O)c2ccccc2Sc2ncccc21)Nc1ccc(F)cc1F -15.2%
Cc1ccccc1C(=O)Nc1sc2c(c1C(=O)N1CCCCC1)CCC(C)C2 (configuration not stated) -26.2%
COc1cccc(C(=O)N2c3ccc(C)cc3C(C)(c3ccccc3)CC2(C)C)c1 (configuration not stated) -39.9%
COc1ccc(C2NC(=O)NC(C)=C2C(=O)Nc2ccccc2)cc1OC (configuration not stated) -17.4%
Cc1ccc(CC(=O)Nc2ccc3c(c2)N(C)C(=O)c2ccccc2S3)cc1 -25.8%
O=C(NCc1cccnc1)C(=O)NCC(c1cccnc1)N1CCN(c2ccc(F)cc2)CC1 (configuration not stated) -15.2%
CC1CCN(S(=O)(=O)c2ccc3c(c2)c(=O)c(C(=O)NCCc2ccccc2)cn3C)CC1 15.1%
CCCCN1C(=O)c2[nH]nc(-c3ccccc3O)c2C1c1ccc(OCc2ccccc2)cc1 (configuration not stated) -89.8%
COc1ccc(S(=O)(=O)NCCc2csc3nc(-c4cccc(C)c4)nn23)cc1F -39.9%
